In the supplement of paper PMC8728848:
The list shows a part of the results.

Assays:
Test in all cases: glycan array binding signal (z-score within array); higher = stronger binding
Conditions in all cases: glycan notation: IUPAC condensed, linker removed
Fuc(a1-2)Gal = molecular target: Fuc(a1-2)Gal
Method in brief: (§1)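 The binding signal is a Z-score computed within each array. Data were drawn from 3228 arrays in the Consortium for Functional Glycomics database, restricted to those with a known protein sequence. Scores were averaged over arrays of the same protein sequence at different concentrations or buffers, and over linkers, and negative values can be taken as non-binding.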

Fuc(a1-2)Gal(b1-3)GalNAc = molecular target: Fuc(a1-2)Gal(b1-3)GalNAc
Method in brief: as §1

[1] = molecular target: Fuc(a1-2)Gal(b1-3)GalNAc(a1-3)[Fuc(a1-2)]Gal(b1-4)Glc
Method in brief: as §1

[2] = molecular target: Fuc(a1-2)Gal(b1-3)GalNAc(a1-3)[Fuc(a1-2)]Gal(b1-4)GlcNAc
Method in brief: as §1

[3] = molecular target: Fuc(a1-2)Gal(b1-3)GalNAc(b1-3)Gal
Method in brief: as §1

[4] = molecular target: Fuc(a1-2)Gal(b1-3)GalNAc(b1-3)Gal(a1-4)Gal(b1-4)Glc
Method in brief: as §1

[5] = molecular target: Fuc(a1-2)Gal(b1-3)GalNAc(b1-4)[Neu5Ac(a2-3)]Gal(b1-4)Glc
Method in brief: as §1

Fuc(a1-2)Gal(b1-3)GlcNAc = molecular target: Fuc(a1-2)Gal(b1-3)GlcNAc
Method in brief: as §1

[6] = molecular target: Fuc(a1-2)Gal(b1-3)GlcNAc(b1-2)Man(a1-3)[Fuc(a1-2)Gal(b1-3)GlcNAc(b1-2)Man(a1-6)]Man(b1-4)GlcNAc(b1-4)GlcNAc
Method in brief: as §1

[7] = molecular target: Fuc(a1-2)Gal(b1-3)GlcNAc(b1-2)Man(a1-3)[Fuc(a1-2)Gal(b1-3)GlcNAc(b1-2)Man(a1-6)]Man(b1-4)GlcNAc(b1-4)[Fuc(a1-6)]GlcNAc
Method in brief: as §1

[8] = molecular target: Fuc(a1-2)Gal(b1-3)GlcNAc(b1-3)Gal(b1-4)Glc
Method in brief: as §1

[9] = molecular target: Fuc(a1-2)Gal(b1-3)GlcNAc(b1-3)GalNAc
Method in brief: as §1

[10] = molecular target: Fuc(a1-2)Gal(b1-3)GlcNAc(b1-3)[Fuc(a1-3)[Gal(b1-4)]GlcNAc(b1-6)]Gal(b1-4)Glc
Method in brief: as §1

[11] = molecular target: Fuc(a1-2)Gal(b1-3)GlcNAc(b1-3)[Gal(b1-4)GlcNAc(b1-6)]Gal(b1-4)Glc
Method in brief: as §1

[12] = molecular target: Fuc(a1-2)Gal(b1-3)[Fuc(a1-4)]GlcNAc
Method in brief: as §1

[13] = molecular target: Fuc(a1-2)Gal(b1-3)[Fuc(a1-4)]GlcNAc(b1-2)Man(a1-3)[Fuc(a1-2)Gal(b1-3)[Fuc(a1-4)]GlcNAc(b1-2)Man(a1-6)]Man(b1-4)GlcNAc(b1-4)GlcNAc
Method in brief: as §1

[14] = molecular target: Fuc(a1-2)Gal(b1-3)[Fuc(a1-4)]GlcNAc(b1-3)[Fuc(a1-3)[Gal(b1-4)]GlcNAc(b1-6)]Gal(b1-4)Glc
Method in brief: as §1

[15] = molecular target: Fuc(a1-2)Gal(b1-3)[Fuc(a1-4)]GlcNAc(b1-3)[Gal(b1-4)GlcNAc(b1-6)]Gal(b1-4)Glc
Method in brief: as §1

Fuc(a1-2)Gal(b1-4)Glc = molecular target: Fuc(a1-2)Gal(b1-4)Glc
Method in brief: as §1

Fuc(a1-2)Gal(b1-4)Glc6S = molecular target: Fuc(a1-2)Gal(b1-4)Glc6S
Method in brief: as §1

Fuc(a1-2)Gal(b1-4)GlcNAc = molecular target: Fuc(a1-2)Gal(b1-4)GlcNAc
Method in brief: as §1

[16] = molecular target: Fuc(a1-2)Gal(b1-4)GlcNAc(b1-2)Man(a1-3)[Fuc(a1-2)Gal(b1-4)GlcNAc(b1-2)Man(a1-6)]Man(b1-4)GlcNAc(b1-4)GlcNAc
Method in brief: as §1

[17] = molecular target: Fuc(a1-2)Gal(b1-4)GlcNAc(b1-2)Man(a1-3)[Fuc(a1-2)Gal(b1-4)GlcNAc(b1-2)Man(a1-6)]Man(b1-4)GlcNAc(b1-4)[Fuc(a1-6)]GlcNAc
Method in brief: as §1

[18] = molecular target: Fuc(a1-2)Gal(b1-4)GlcNAc(b1-2)[Fuc(a1-2)Gal(b1-4)GlcNAc(b1-4)]Man(a1-3)[Fuc(a1-2)Gal(b1-4)GlcNAc(b1-2)Man(a1-6)]Man(b1-4)GlcNAc(b1-4)GlcNAc
Method in brief: as §1

[19] = molecular target: Fuc(a1-2)Gal(b1-4)GlcNAc(b1-3)Gal(b1-4)GlcNAc
Method in brief: as §1

[20] = molecular target: Fuc(a1-2)Gal(b1-4)GlcNAc(b1-3)Gal(b1-4)GlcNAc(b1-3)Gal(b1-4)GlcNAc
Method in brief: as §1

[21] = molecular target: Fuc(a1-2)Gal(b1-4)GlcNAc(b1-3)GalNAc
Method in brief: as §1

[22] = molecular target: Fuc(a1-2)Gal(b1-4)GlcNAc6S
Method in brief: as §1

[23] = molecular target: Fuc(a1-2)Gal(b1-4)[Fuc(a1-3)]GlcNAc
Method in brief: as §1

[24] = molecular target: Fuc(a1-2)Gal(b1-4)[Fuc(a1-3)]GlcNAc(b1-2)Man(a1-3)[Fuc(a1-2)Gal(b1-4)[Fuc(a1-3)]GlcNAc(b1-2)Man(a1-6)]Man(b1-4)GlcNAc(b1-4)GlcNAc
Method in brief: as §1

[25] = molecular target: Fuc(a1-2)Gal(b1-4)[Fuc(a1-3)]GlcNAc(b1-2)[Fuc(a1-2)Gal(b1-4)[Fuc(a1-3)]GlcNAc(b1-4)]Man(a1-3)[Fuc(a1-2)Gal(b1-4)[Fuc(a1-3)]GlcNAc(b1-2)Man(a1-6)]Man(b1-4)GlcNAc(b1-4)GlcNAc
Method in brief: as §1

[26] = molecular target: Fuc(a1-2)Gal(b1-4)[Fuc(a1-3)]GlcNAc(b1-3)Gal(b1-4)[Fuc(a1-3)]GlcNAc
Method in brief: as §1

[27] = molecular target: Fuc(a1-2)Gal(b1-4)[Fuc(a1-3)]GlcNAc(b1-3)Gal(b1-4)[Fuc(a1-3)]GlcNAc(b1-3)Gal(b1-4)[Fuc(a1-3)]GlcNAc
Method in brief: as §1

[28] = molecular target: Fuc(a1-2)Gal(b1-4)[Fuc(a1-3)]GlcNAc(b1-3)GalNAc
Method in brief: as §1

Fuc(a1-2)Gal6S(b1-4)Glc = molecular target: Fuc(a1-2)Gal6S(b1-4)Glc
Method in brief: as §1

[29] = molecular target: Fuc(a1-2)Gal6S(b1-4)Glc6S
Method in brief: as §1

[30] = molecular target: Fuc(a1-2)Gal6S(b1-4)GlcNAc
Method in brief: as §1

B1: PILRa (Homo sapiens), Q9UKJ1 (protein)
chain: MGRPLLLPLLPLLLPPAFLQPSGSTGSGPSYLYGVTQPKHLSASMGGSVEIPFSFYYPWELATAPDVRISWRRGHFHRQSFYSTRPPSIHKDYVNRLFLNWTEGQKSGFLRISNLQKQDQSVYFCRVELDTRSSGRQQWQSIEGTKLSITQAVTTTTQRPSSMTTTWRLSSTTTTTGLRVTQGKRRSDSWHISLETAVGVAVAVTVLGIMILGLICLLRWRRRKGQQRTKATTPAREPFQNTEEPYENIRNEGQNTDPKLNPKDDGIVYASLALSSSTSPRAPPSHRPLKSPQNETLYSVLKA
With B1 the “glycan array binding signal (z-score)” value (Fuc(a1-2)Gal) was -0.086, the “glycan array binding signal (z-score)” value (Fuc(a1-2)Gal(b1-3)GalNAc) was -0.147 and the “glycan array binding signal (z-score)” value [1] was 0.021. The “glycan array binding signal (z-score)” value [2] was -0.202, the “glycan array binding signal (z-score)” value [3] was 0.215 and the “glycan array binding signal (z-score)” value [4] was -0.306. The “glycan array binding signal (z-score)” value [5] was -0.102, the “glycan array binding signal (z-score)” value (Fuc(a1-2)Gal(b1-3)GlcNAc) was -0.012 and the “glycan array binding signal (z-score)” value [6] was -0.191. The “glycan array binding signal (z-score)” value [7] was 0.026, the “glycan array binding signal (z-score)” value [8] was -0.181 and the “glycan array binding signal (z-score)” value [9] was -0.519. For the same binder, the “glycan array binding signal (z-score)” value [10] was -0.12, the “glycan array binding signal (z-score)” value [11] was -0.003 and the “glycan array binding signal (z-score)” value [12] was -0.278. For the same binder, the “glycan array binding signal (z-score)” value [13] was 4.38, the “glycan array binding signal (z-score)” value [14] was 0.056 and the “glycan array binding signal (z-score)” value [15] was -0.237. The “glycan array binding signal (z-score)” value (Fuc(a1-2)Gal(b1-4)Glc) was -0.217, the “glycan array binding signal (z-score)” value (Fuc(a1-2)Gal(b1-4)Glc6S) was -0.229 and the “glycan array binding signal (z-score)” value (Fuc(a1-2)Gal(b1-4)GlcNAc) was -0.263. For the same binder, the “glycan array binding signal (z-score)” value [16] was -0.087, the “glycan array binding signal (z-score)” value [17] was -0.374 and the “glycan array binding signal (z-score)” value [18] was -0.21. The “glycan array binding signal (z-score)” value [19] was -0.365, the “glycan array binding signal (z-score)” value [20] was -0.355 and the “glycan array binding signal (z-score)” value [21] was -0.184. For the same binder, the “glycan array binding signal (z-score)” value [22] was -0.228, the “glycan array binding signal (z-score)” value [23] was -0.165 and the “glycan array binding signal (z-score)” value [24] was 2.16. The “glycan array binding signal (z-score)” value [25] was 4.02, the “glycan array binding signal (z-score)” value [26] was 1.78 and the “glycan array binding signal (z-score)” value [27] was -0.189. The “glycan array binding signal (z-score)” value [28] was 5.45, the “glycan array binding signal (z-score)” value (Fuc(a1-2)Gal6S(b1-4)Glc) was -0.131 and the “glycan array binding signal (z-score)” value [29] was 0.337. For the same binder, the “glycan array binding signal (z-score)” value [30] was -0.127.
